Results taken from the supplement of paper PMC11417369.
± gives the standard deviation of the averaged measurements. The list shows a part of the results.

Tested on: PfAP2-I AP2 domain 3 (GST-tagged)
Assay: gcPBM binding intensity (ln(normalized median fluorescence intensity)); higher = stronger DNA binding
In short: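 The binding buffer was 1× PBS containing 1% milk, 0.2 mg/ml BSA, 0.5% salmon testes DNA and 0.03% Triton X-100. In it, GST-tagged P. falciparum DNA-binding domains expressed in E. coli were applied for 1 h to an Agilent 4 × 180k array of primer-extended double-stranded 36-bp intergenic genomic probes plus negative controls. Binding intensity, read with Alexa488 anti-GST antibody and a 488 nm scan, is the highest Masliner-normalised natural-log median intensity across replicate spots of either probe orientation.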

Question: For “ATTTTATTTTTTAAAGGTACAGTTACAGCTTATATA [XGTACX_site7513]”, which “gcPBM binding intensity (ln)” value is on record?
Answer: 7.79 ± 0.34

Question: How did the “gcPBM binding intensity (ln)” value turn out when “TCTTTTAAAAAAAAAGGAGGAACATAAAAAGTAGAA [XGTACX_negctrl_site272]” was run?
Answer: 8.13 ± 0.6

Question: How did the “gcPBM binding intensity (ln)” value turn out when “ATAATTAACAAATACACACACACACCCCCACAAAAA [CACACA_site518]” was run?
Answer: 10.36 ± 0.057

Question: “AAATTAAAATATAATACACACATAAAAAAAAAAAAA [CACACA_site4183]” was tested. Which “gcPBM binding intensity (ln)” value did it give?
Answer: 8.05 ± 0.78

Question: For “TATATATTTTTTTTTTGTACTCACAATATATGTATG [XGTACX_site8024]”, which “gcPBM binding intensity (ln)” value is on record?
Answer: 7.92 ± 0.39

Question: For “AGTATTCATAAAAATACACACATGGAAAAATAAACT [CACACA_site6796]”, which “gcPBM binding intensity (ln)” value is on record?
Answer: 8.06 ± 0.69

Question: Which “gcPBM binding intensity (ln)” value does the source give for “TGTATAAGTATTAATACACACACAAAATAATAAAAA [CACACA_site9156]” here?
Answer: 7.93 ± 0.64

Question: “TACTTACATTATTTATTTATATAAAAAGTTAATTAT [XGTACX_negctrl_site433]” was tested. Which “gcPBM binding intensity (ln)” value did it give?
Answer: 7.55 ± 0.3

Question: Which “gcPBM binding intensity (ln)” value does the source give for “TTTATTAGTAATTATACACACATATAAAATGAATAA [CACACA_site6754]” here?
Answer: 7.67 ± 0.52

Question: “TATATTTATAGGTACACACACACATATAAATAAATA [CACACA_site6345]” was tested. Which “gcPBM binding intensity (ln)” value did it give?
Answer: 8.13 ± 0.18

Question: With “ATAAAATTATATTTTGCATGCAGGCCTTTTTCTTAA [TGCATGCA_site1030]” as the sequence, how does the “gcPBM binding intensity (ln)” value read?
Answer: 8.08 ± 1.1

Question: “AAAAAAAAAAAAAACACACACATATATATATATATA [CACACA_site1891]” was tested. Which “gcPBM binding intensity (ln)” value did it give?
Answer: 9.59 ± 0.35

Question: How did the “gcPBM binding intensity (ln)” value turn out when “TTCCAAACCTCATTATGGAAAATAAAAAAATAAAAA [XGTACX_negctrl_site17]” was run?
Answer: 7.65 ± 0.57

Question: Which “gcPBM binding intensity (ln)” value does the source give for “TTCCAAAAAGTTATTACACACATATGTGCACATATA [CACACA_site6465]” here?
Answer: 10 ± 0.4

Question: “AGAATATTATATTATGCATGCATATAGAAAAATATA [TGCATGCA_site302]” was tested. Which “gcPBM binding intensity (ln)” value did it give?
Answer: 7.81 ± 0.73

Question: Which “gcPBM binding intensity (ln)” value does the source give for “ATAAAATATTTTTGAACATGCAGGTAAAAAATAAAA [TGCATGCA_site1019]” here?
Answer: 9.78 ± 0.76

Question: For “ACTTATAAAAACATATACCCCATCGCATTTTTTCCA [XGTACX_negctrl_site177]”, which “gcPBM binding intensity (ln)” value is on record?
Answer: 7.88 ± 0.75

Question: With “TGTAATATAAAATTTTGTACTCAAAAATTTATATAT [XGTACX_site3252]” as the sequence, how does the “gcPBM binding intensity (ln)” value read?
Answer: 7.66 ± 0.22

Question: For “AATTTTTTATATGTCACACATTTATTATTATTATTA [CACACA_site4198]”, which “gcPBM binding intensity (ln)” value is on record?
Answer: 7.76 ± 0.64

Question: How did the “gcPBM binding intensity (ln)” value turn out when “TTTTTTTTTCTTTTCAAACACACAATTGGTATATAT [CACACA_site3321]” was run?
Answer: 7.88 ± 0.61

Question: “TGACTGTAGATATTTTGTACATAACCTAATATATAT [XGTACX_site970]” was tested. Which “gcPBM binding intensity (ln)” value did it give?
Answer: 7.81 ± 0.54

Question: How did the “gcPBM binding intensity (ln)” value turn out when “CGTATAAATATACGTGCATGTAACTTTTTCTATATT [TGCATGCA_site981]” was run?
Answer: 8.96 ± 0.71

Question: Which “gcPBM binding intensity (ln)” value does the source give for “CTATTTATTTTTGATGCATGCCAAATATAGAAAAAA [TGCATGCA_site368]” here?
Answer: 8 ± 0.59

Question: How did the “gcPBM binding intensity (ln)” value turn out when “TAGTAGTTATCACTAACATGCAATAATATTATTTAA [TGCATGCA_site161]” was run?
Answer: 7.69 ± 0.68

Question: “TTATGTACAATTTCTTCTTTCTTTTTTCCTAAAGAC [CACACA_negctrl_site1193]” was tested. Which “gcPBM binding intensity (ln)” value did it give?
Answer: 7.68 ± 0.67

Question: With “TTTTTTTTTTTTTTTTGTACACATAATATGAATAAT [XGTACX_site2661]” as the sequence, how does the “gcPBM binding intensity (ln)” value read?
Answer: 8.14 ± 0.49

Question: Which “gcPBM binding intensity (ln)” value does the source give for “ATAACATATATATATACACACACATATATATATGAA [CACACA_site7983]” here?
Answer: 7.92 ± 0.35

Question: With “ATAATATAATACGAAGGTACACATTTTCTTAATATA [XGTACX_site7947]” as the sequence, how does the “gcPBM binding intensity (ln)” value read?
Answer: 7.63 ± 0.47

Question: Which “gcPBM binding intensity (ln)” value does the source give for “ATATATTTTTTGAATACACACATATTATAGGTAATA [CACACA_site6709]” here?
Answer: 7.76 ± 0.47

Question: How did the “gcPBM binding intensity (ln)” value turn out when “TATTTAAAAAGAAAAAAAAAAAAAAAAATACATATA [CACACA_negctrl_site164]” was run?
Answer: 7.46 ± 0.27

Question: Which “gcPBM binding intensity (ln)” value does the source give for “AAAAAAAAAAAATATACACACTAATATATTTTTTTA [CACACA_site4604]” here?
Answer: 7.66 ± 0.2

Question: “TATTAAATTTATCGGAGTACATTTAAATGTATATAC [XGTACX_site7975]” was tested. Which “gcPBM binding intensity (ln)” value did it give?
Answer: 7.98 ± 0.48

Question: With “TATATACGCAAACACACACACACATACACCCACATA [CACACA_site1724]” as the sequence, how does the “gcPBM binding intensity (ln)” value read?
Answer: 8.09 ± 0.31

Question: How did the “gcPBM binding intensity (ln)” value turn out when “TATTACTATGTTATAACTTTTTTAAACGTGATCATA [TGCATGCA_negctrl_site128]” was run?
Answer: 7.49 ± 0.51

Question: For “TATGTGTAATATTTTTGTACAGAAAAAAAAAAAAAA [XGTACX_site7075]”, which “gcPBM binding intensity (ln)” value is on record?
Answer: 8.17 ± 0.86

Question: How did the “gcPBM binding intensity (ln)” value turn out when “AAAAAAAAAAAAAACACACACATGCACATCATATTA [CACACA_site4467]” was run?
Answer: 8.58 ± 0.59

Question: Which “gcPBM binding intensity (ln)” value does the source give for “AAAAAAAAAATTAAAACATGCATAAATAAATATATT [TGCATGCA_site866]” here?
Answer: 7.61 ± 0.82

Question: With “TCATTTCACAGACACACACACACAATATATTTCCTT [CACACA_site9295]” as the sequence, how does the “gcPBM binding intensity (ln)” value read?
Answer: 8.28 ± 0.58

Question: With “ATATTTTTATTAGTAGTGCAATTTAGTGTATATATA [GTGCAC_site9542]” as the sequence, how does the “gcPBM binding intensity (ln)” value read?
Answer: 9.71 ± 0.34

Question: Which “gcPBM binding intensity (ln)” value does the source give for “TTTAATCAACAAAATCTACACACTAATATGAAATAT [CACACA_site9250]” here?
Answer: 7.51 ± 0.57

Question: How did the “gcPBM binding intensity (ln)” value turn out when “ATACACGTTTTACAATGTACAGAAAGTATACATAAT [XGTACX_site4585]” was run?
Answer: 7.88 ± 0.56

Question: How did the “gcPBM binding intensity (ln)” value turn out when “GTATTTTTTTTCTTTTGTACATATATATAAAGAATA [XGTACX_site4569]” was run?
Answer: 8.25 ± 0.44

Question: Which “gcPBM binding intensity (ln)” value does the source give for “TATTATATATATAAATGTACATATTATTTTTCTTTT [XGTACX_site8670]” here?
Answer: 7.62 ± 0.56

Question: With “AAGAATTTTCGATTTGCACACATTTGTAAAATAAAA [CACACA_site2354]” as the sequence, how does the “gcPBM binding intensity (ln)” value read?
Answer: 9.16
